Experimental data from the RNAGym collection of RNA variant scans (doi:10.1073/pnas.2313332121).
Variants at the floor of the assay are shown more often than the library holds them.

B1: TPR 5TU (parent)
chain: GGAUCUUCUCGAUCUAACAAAAAAGACAAAUCUGCCACAAAGCUUGAGAGCAUCUUCGGAUGCAGAGGCGGCAGCCUUCGGUGGCGCGAUAGCGCCAACGUUCUCAACUAUGACACGCAAAACGCGUGCUCCGUUGAAUGGAGUUUAUCAUG

Variants of: B1
Assay: polymerase ribozyme fitness, log enrichment relative to wild type (log ratio); higher = more active; in vitro selection for triplet polymerase activity
In short: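 Genotype fitness is the logarithm of its enrichment divided by wild-type enrichment, using inverse-variance-weighted averages of replicates. That logarithm is base 2. Enrichment was measured by Illumina sequencing of input and output libraries from one triplicate in vitro selection round, with frozen incubation at −7 °C, on PCR-built, transcribed mutant libraries of each subunit of a heterodimeric triplet polymerase ribozyme, retaining genotypes with ≥10 input reads and ≥1 read per output.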

Polymerase ribozyme fitness (log ratio), ≤ -4.2:
GGAUCUUCUCGAUCUAACAAAAAAGACAAAUCUGCCACAAAGCUUGAGAGGAUGUUCGGAUGCAGAGGCGGCAGCGUUCGGUGGCGCGAUAGCGCGAAUGUUCUCAACUAUGACACGCAAAACGCGUGCUCCGUUGAAUGGAGUUCAUCAUG [C51G C54G C76G C96G C99U U146C]
GGAUCUUCUCGAUCUAACAAAAAAGACAAAUCUGCCACAAAGCUUGAGAGGAUCUUCGGAUGCAGAGGCGGCAGCCUUCGGUGGCGCGAUAACGCCAACGUUCUCAACUAUGACACGCAAAACGCGUGCUCCGUUGAAUGGAGUUUAUCAUG [C51G G92A]
GGAUCUUCUCGAUCUAACAAAAAAGACAAAUCUGCCACAAAGCUUGAGAGGAUCUUCGGAUGCAGAGGCGGCAGCAUUCGGUGGCGCGAUAGCGCCAACGUUCUCAACUAUGAUACGCAAAACGCGUGCUCCCUUGAAUGGAGUUUAUCAUG [C51G C76A C114U G133C]
GGAUCUUCUCGAUCUAACAAAAAAGACAAAUCUGCCACAAAGCUUGAGAGGAUCUUCGGAUGCAGAGGCAGCAGCCUUCGAUGGCUCGAUAGCGCCAACGUUCUCAACUAUGACACGCAAAACGCGUAAUCCGUUGAAUGGAGUUUAUCAUG [C51G G70A G81A G86U G128A C129A]
GGAUCUUCUCGAUCUAACAAAAAAGACAAAUCUGCCACAAAGCUUGAGAGGAUCUUCGGAUGUAGAGGCGGCAGCCUUCGGUGGCGCAAUAGCGCUAACGUUCUCAACUAUGACAAGCAAAACGCGUGCUCCGUUGAAUGGAGUUUAUCAUG [C51G C63U G88A C96U C116A]
GGAUCUUCUCGAUCUAACAAAAAAGACAAAUCUGCCACAAAGCUUGAGAGGAACUUCGGGUGCAGAGGCUGCAGCCUUCGGUCGCGCGAUAGCGCCAACGUUCUCAACUAUGACACGCAAAACGCGUGCUCCGUUGAAUGGAGUUUAUCCUG [C51G U53A A60G G70U G83C A150C]
GGAUCUUCUCGAUCUAACAAAAAAGACAAAUCUGCCACAAAGCUUGAGAGGAUCUUCGGAUGCAGAGGUGGCAGCCUUCGGUGGCGCGAUAGCGCUAAGGUUCUCAACUAUGACACGCAAAACGCGUGCUCCGUUGAAUGGAGUUUAUCAUG [C51G C69U C96U C99G]
GGAUCUUCUCGAUCUAACAAAAAAGACAAAUCUGCCACAAAGCUUGAGAGGAACUUCGGAUGCAGAGGCGGCAGCCUUCGGUCGCGCGAUAGCGCCAACGUUCUCAACUAUGACACGUAAAACGCGUACUCCGUUGAAUGGAGUUUAUCAUG [C51G U53A G83C C118U G128A]
GGAUCUUCUCGAUCUAACAAAAAAGACAAAUCUGCCACAAAGCUUGAGAGGAUCUUCAGAUGCAGAGGCGGCAGCCUUCGGUGGUGCGAUAGCGCCAACGUUCUCAACUAGGACACGCAAAACGCGUGCUCCGUUGAAUGGAGUUUAUCAUG [C51G G58A C85U U111G]
GGAUCUUCUCGAUCUAACAAAAAAGACAAAUCUGCCACAAAGCUUGAGAGGAUCUUCGGAGGCAGAGGCGGCAGCCUUCGGUGGCGCGAUAGCGCCAACGUUCUCAACUAUGACACGCAAAACGCGUGCUCCGUUGAAUGGAGUUUACCAUG [C51G U61G U148C]
GGAUCUUCUCGAUCUAACAAAAAAGACAAAUCUGCCACAAAGCUUGAGAGGAUCUUCGGAUGCAGAGGCGGCAGCAUUCGGUGGCGUGAUAGCGCCAACGUUCUCAACUAUGACACGCAAAACGCGUGCUCCGUUGAAUGGAGUUUAUCAUG [C51G C76A C87U]
GGAUCUUCUCGAUCUAACAAAAAAGACAAAUCUGCCACAAAGCUUGAGAGGAUCUUCGGAUGCAGAGGCGGCAGCCUUCGGUGGCGCGAUAGCGCCGACGUUCUCAACUAUGACACGAAAAACGCGUGCUCCGUUGAGUGUAGUUUAUCAUG [C51G A97G C118A A138G G141U]
GGAUCUUCUCGAUCUAACAAAAAAGACAAAUCUGCCACAAAGCUUGAGAGGAUCUUCGGAUGUAGAGGCGGCAGCCUUCGGUGGCGCGAUAGCGCCAACGUUCUCAACUAUGACAUGCAAAACGCGUGCUCCGUUGAACGGAGUUUAUCAUG [C51G C63U C116U U139C]
GGAUCUUCUCGAUCUAACAAAAAAGACAAAUCUGCCACAAAGCUUGAGAGGAUCUUCCGAUGCAGAGGCGGCAGCCUUCGAUGGCGCGAUAGCGCCAACGUUCUCAACUAUGACACGCAAAACGCGUGCUCCGUUUAAUGGAGUUUAUCAUG [C51G G58C G81A G136U]
GGAUCUUCUCGAUCUAACAAAAAAGACAAAUCUGCCACAAAGCUUGAGAGGAUCUUCGGAUGCAGAGGCGGCAGCCUUCGGUGGCGCGAUACCUCCAACGUUCUCAACUAUGACCCGCAAAACGCGUGCUCCGCUGAAUGGAGUUUAUCAUG [C51G G92C G94U A115C U134C]
GGAUCUUCUCGAUCUAACAAAAAAGACAAAUCUGCCACAAAGCUUGAGAGGAUCUUCGGAUGCAGAGGCGGCAGCCUUCGGUGGGGCGAUAGCGCCAACGUUCUCAACUAUGACACGCAAAACGUGUGCUCCGUUGCAUGGAGUUUAUCAUG [C51G C85G C125U A137C]
GGAUCUUCUCGAUCUAACAAAAAAGACAAAUCUGCCACAAAGCUUGAGAGGAUCUUCGCAUGCAGAGGCGGCAGUCUUCGGUGGUGCGAUUGAGCCAACGUUCUCAACUAUGACACGCAAAACGCGUGCUCCGUUGAAUGUAGUUUAUCAUG [C51G G59C C75U C85U A91U C93A G141U]
GGAUCUUCUCGAUCUAACAAAAAAGACAAAUCUGCCACAAAGCUUGAGAGGAUCUUCGGAUGCAGAGGCGGCAGCCUUCGCUGGCGCAAUAGCGCCAACGUUCUCAACUAUGACACGCAAAACGCGUGCUCCGUUGAAUGGAGUUUAUCAUG [C51G G81C G88A]
GGAUCUUCUCGAUCUAACAAAAAAGACAAAUCUGCCACAAAGCUUGAGAGGAUCUUCGGAUGCAGAGGCGGCGGCCUUGGGUGGCGGGAUAGCGCCAACGUUCUCAACUAUGACACGCAAAACGCGUGCUCCGUUGAAUCGAGAUUAUCAUG [C51G A73G C79G C87G G140C U144A]
GGAUCUUCUCGAUCUAACAAAAAAGACAAAUCUGCCACAAAGCUUGAGAGGAUCUUCGGAUGCAGAGGCGGCAGCCUUCGGUGGCGCGAUUGCGCCAACGUUCUCAACUAUGACACGCAAAACGCGUGCUCCGUUGAAUGGAGUUUAUCAUG [C51G A91U]
GGAUCUUCUCGAUCUAACAAAAAAGACAAAUCUGCCACAAAGCUUGAGAGGAUCUUCGGAUGCAGAGGCGGCAGCCUUCGGUGGCGCGAUGGCGCCAACGUUCUCAACUAUGACACGCAAAACGCGUGCUCCGUUGAAUGGAGUUUAUCAUG [C51G A91G]
GGAUCUUCUCGAUCUAACAAAAAAGACAAAUCUGCCACAAAGCUUGAGAGGACCUUCGGAUGCAGACGCGGCAGCCUUCGGUGGCUCGAUAGCGCCAACGGUCUCAACUAUGACACGCAAAACGCGUGCUCCGUUGAUUGGAGUUUAUCAUG [C51G U53C G67C G86U U101G A138U]
GGAUCUUCUCGAUCUAACAAAAAAGACAAAUCUGCCACAAAGCUUGAGAGGAUCUUCGAAUGCAGAGGCGGCAGCCUUCGGUGGCGCGAUAGCGCCAACGUUCUCAACUAUGACACGCAAAACGCGUGCUCCUUUGAAUGAAGUUUAUCAUG [C51G G59A G133U G141A]
GGAUCUUCUCGAUCUAACAAAAAAGACAAAUCUGCCACAAAGCUUGAGAGGAUCUUCGGAUGCAGAGGCAGCAGCUUUCGGUUACGCGAUAGCGCCAGCGUUCUCAACUAUGACACGCAAAACGCGUGCUCCGUGGAAUGGAGUUUAUCAUG [C51G G70A C76U G83U G84A A98G U135G]
GGAUCUUCUCGAUCUAACAAAAAAGACAAAUCUGCCACAAAGCUUGAGAGGAUCUUCGGAUGCAGAGGCGGCAGCCUUCGGUGGCGCGAUAGCUCCAACGUUCUCAACUAUGACACGCAAAACGCGUGCUCCGUUGAAUGGAGUUUAUCAUG [C51G G94U]
GGAUCUUCUCGAUCUAACAAAAAAGACAAAUCUGCCACAAAGCUUGAGAGGAUCUUCGGAUGCAGAGGCGGCAGCCUUCGGUGGAGCGAUAUCGACAACGUUCUCAACUAUGACACGCAAAACGCGUGCUCCGUUGAAUGGAGUUUAUCAUG [C51G C85A G92U C95A]
GGAUCUUCUCGAUCUAACAAAAAAGACAAAUCUGCCACAAAGCUUGAGAGGAUUUUCGGAUGCAGAGGCGGCAGGCUUCGGUGGCGCGAUAGCACCAACGUUCUCAACUAUGACACGCAAAACGCGUGCUCCGUUGAAUGGUGUUUAUCGUG [C51G C54U C75G G94A A142U A150G]
GGAUCUUCUCGAUCUAACAAAAAAGACAAAUCUGCCACAAAGCUUGAGAGGAUUUUCGGAUGCAGAGGCGGCAGCCUUCGGUGGCGCGAUAGCGCCAGCGUUCUCAACUAUGACACGCAAAACGCGUGCUCAGUGGAAUGGAGUUUAUCAUG [C51G C54U A98G C132A U135G]
GGAUCUUCUCGAUCUAACAAAAAAGACAAAUCUGCCACAAAGCUUGAGAGGAUCUUCGGAUGCACAGGCGGCAGCCGUCGGUGGCGCGAUAGCGCCAACGUCCUCAACUAUGACACGCAGAACGCGUGCUCCGUUCAAUGGAGUUGAUCAUG [C51G G65C U77G U102C A120G G136C U146G]
GGAUCUUCUCGAUCUAACAAAAAAGACAAAUCUGCCACAAAGCUUGAGAGGAUCUUCGGAUGCAGAGGCGGCAGUCUUACGUGGCGAGAUAGCGCCAUCGUUGUCAACUAUGACACGCAAAACGCGUGCUCCGUUGAAUGGAGUGUAUCAUG [C51G C75U C79A G80C C87A A98U C103G U145G]
GGAUCUUCUCGAUCUAACAAAAAAGACAAAUCUGCCACAAAGCUUGAGAGGAUCUUCGGCUGCACAGGCGGCAGCCUUCGGUGGCGCGAUAGUGCCAACGCUCUCAACUAUGACACGCAAAACGCGUGCUCCGUUGAAUGGAGUUUAUCAUG [C51G A60C G65C C93U U101C]
GGAUCUUCUCGAUCUAACAAAAAAGACAAAUCUGCCACAAAGCUUGAGAGGAUCUUCGGAUGCAGAGGCGGCAGCCUUCGGUGGCGCGAUAGCGUCAACGUUCUCUACUAUGACACGCAAAACGCGUGCUCCGUUGAAUGGAGUUUAUCAUG [C51G C95U A106U]

Polymerase ribozyme fitness (log ratio), -2.88:
GGAUCUUCUCGAUCUAACAAAAAAGACAAAUCUGCCACAAAGCUUGAGAGGAUCAUCGGAUGCAGAGGCGGCAGCCUUCGGUGGCGCGAUAGCGCCAACGUUCUCAACUAUGACACGCAAAACGCGUGCUCCGUUGAAUGGAGUUUAUCAUG [C51G U55A]

Polymerase ribozyme fitness (log ratio), -1.74:
GGAUCUUCUCGAUCUAACAAAAAAGACAAAUCUGCCACAAAGCUUGAGAGGAUCUUCGGGUGCAGAGGCGGCAGCCUUCGGUGGCGCGAUAGCGCCAACGUUCUCAACUAUGACACGCAAAACGCGUGCUCCGUUGAAUGGAGUUUAUCAUG [C51G A60G]

Polymerase ribozyme fitness (log ratio), -3.29:
GGAUCUUCUCGAUCUAACAAAAAAGACAAAUCUGCCACAAAGCUUGAGAGGAUCUUCGGAUGCAGAGGCGGCAGCCUUCGGUGGCGCGAUAGCGCCAACGUUCUCGACUAUGACACGCAAAACGCGUGCUCCGUUGAAUGGAGAUUAUCAUG [C51G A106G U144A]

Polymerase ribozyme fitness (log ratio), -3.9:
GGAUCUUCUCGAUCUAACAAAAAAGACAAAUCUGCCACAAAGCUUGAGAGGAUCUUCGGAUGCAGAGGCGGCAGCCUUCGGUGGCGCGAUAGCCCCAACGUUCUCAACUAUGACACGCAAAACGCGUGCUCCGUUGAAUGGAGUUUAUUAUG [C51G G94C C149U]

Polymerase ribozyme fitness (log ratio), -2.73:
GGAUCUUCUCGAUCUAACAAAAAAGACAAAUCUGCCACAAAGCUUGAGAGGAUCUUCGGAUGCAGAGGCGGCAGCCUUCGGUGGCGCGAUAGCGUCAACGUUCUCAACUAUGACACGCAAAACGCGUGCUCCGUUGAAUGGAGUUUAUCAUG [C51G C95U]

Polymerase ribozyme fitness (log ratio), -2.86:
GGAUCUUCUCGAUCUAACAAAAAAGACAAAUCUGCCACAAAGCUUGAGAGGAUCUACGGAUGCAGAGGCGGCAGCCUUCGGUGGCGCGAUAGCGCCAACGUUCUCAACUAUGACACUCAAAACGCGUGCUCCGUUGAAUGGAGUUUAUCAUG [C51G U56A G117U]
